# The full ranking holds about 33,000 sequences; the median of “E-score (-0.5 to 0.5)” is about -0.056, and the highest 2% start at about 0.38. The list shows a part of the results.
# Target: Stb4 (UniProt P50104)
# Test: PBM E-score (8-mer binding enrichment) (E-score (-0.5 to 0.5)); higher = stronger / more preferred TF binding; most listed sequences are background and not binding sites
# Conditions: protein concentration: 200 nM; construct: GST-DNA-binding domain
# Procedure, shortened: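 Universal all-10-mer Agilent arrays, fresh or stripped once, were converted to double-stranded form by primer extension. GST-tagged yeast transcription factors from PURExpress in vitro transcription/translation, full-length or DNA-binding domain only, were applied at about 100-200 nM and detected with fluorescent anti-GST. After masliner normalisation, the Universal PBM Analysis Suite scored each ungapped eight-base word together with its reverse complement by E-score.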
row,Sequence,PBM E-score
1,AAAACCCT,-0.00393
2,CCGGGGCA,0.17
3,CCGCGGCA,0.278
4,AGCTTGAG,-0.15
5,CAACCATG,-0.055
6,GTGGCTCA,-0.125
7,ATCTCCAG,-0.197
8,AAAGCACC,0.038
9,CGTATGAG,-0.0445
10,ATCTGTGA,0.0405
11,CGCTTCCC,0.188
12,TAGTAGCA,-0.0308
13,AAAATCTG,-0.0543
14,GATGGGCA,-0.0313
15,TAATGCTA,-0.101
16,ACAGTCCA,-0.3
17,CAAGTCAA,-0.25
18,ACAAGAGG,-0.19
19,GGTTCCTA,-0.116
20,GATGGGAA,-0.0418
21,CCCCAACA,-0.282
22,CCTGAAGG,-0.22

row,Sequence,PBM E-score
1,GCACAAAC,-0.0633
2,CGCCCCGA,0.338
3,AGGTTAAG,-0.175
4,CTAGCGAA,-0.25
5,AGATGAAA,-0.0887
6,GGCGAGCC,0.0688
7,CGGTAACG,0.286
8,CGGCCTAA,0.163
9,CAGACGCA,-0.204
10,CATCGATC,-0.0474
11,CGTAAGGA,-0.195
12,GTGACGTA,-0.0498
13,AGAGTTCG,0.193
14,AGTTCCAG,-0.136
15,CCTCTCCC,0.0609
16,ATCGATGA,-0.158
17,AGTGCCGC,0.123
18,ACCTACGA,-0.199
19,CCAGTCGC,0.164
20,CACTGATA,-0.175
21,CCTCAGAA,-0.323
22,CAGGCCTA,-0.181

row,Sequence,PBM E-score
1,ATAAGATG,-0.0794
2,ATACCACC,0.0265
3,CATGCTAG,-0.223
4,CATATGTC,-0.0451
5,GTCGACTA,-0.101
6,CTTGCTCC,0.0505
7,GGTTCTAC,0.0111
8,CTCTATCC,0.126
9,GCTCAAAA,-0.00731
10,AATTCAAG,-0.00322
11,ACTTGGGA,-0.0874
12,CGGTGGTC,0.131
13,ACATTCAT,-0.13
14,AGCCAGGA,-0.311
15,ACCAGCAG,-0.38
16,CACTCTAC,0.0151
17,TCAAACCA,0.125
18,ATCGGGCA,0.125
19,TGCAACAA,-0.085
20,GGCTCACC,-0.0934
21,GTATTAGA,-0.0494
22,GCGGAGCC,0.0792

row,Sequence,PBM E-score
1,AAGGAAAG,-0.103
2,CCCTTATA,-0.16
3,CTCAAGTC,-0.234
4,AACGGGGC,0.0461
5,ATAGGACC,-0.0836
6,AATATGGT,0.0218
7,AAACGCCA,0.00323
8,CTTGTGAA,-0.198
9,AACGTCAA,-0.114
10,CGTAGTCC,-0.0835
11,AAGGTGCA,-0.0859
12,TTATTAAA,-0.085
13,CTCATGCA,-0.217
14,GGCATGCC,0.156
15,GATTGATA,-0.139
16,AGATTCGA,-0.352
17,AAAGACCT,-0.111
18,AGTAGCCA,-0.331
19,ATTTTCTC,0.00853
20,CATGCTGC,-0.136
21,CTGATAGA,-0.0412
22,CTCCTAAG,-0.254

row,Sequence,PBM E-score
1,GGGTGATA,0.0946
2,CACAGACA,-0.213
3,CCGATAAA,0.287
4,ATGCATTG,-0.171
5,AGGGGCCG,0.0651
6,CAGATGGA,0.0763
7,CGCGATAA,-0.135
8,AACAGGTC,-0.12
9,TGACAGAA,-0.205
10,ATGAAAAC,0.118
11,ACTACACA,-0.0504
12,ACCTTGTC,-0.191
13,AGAGTTCC,0.202
14,AGAGTCCG,0.0517
15,ACTCCGTG,0.0866
16,GATATACA,0.116
17,ATTACGCA,0.00056
18,CTATGCCC,-0.086
19,AAACTGGG,-0.067
20,GACCATCC,0.039
21,AAACCTCT,0.00543
